{"sequences": {"note": "Amino acid sequences for entries named in this document (tags omitted). A change or cut given only in a name is not applied to a line headed by its entry. Chains listed by the source or under a name are the forms on record and can include a tag or linker. Residues count along the entry.", "XIAP-UBA (UBA domain of X-linked inhibitor of apoptosis protein, residues 365-423) (P98170, residues 365-423)": "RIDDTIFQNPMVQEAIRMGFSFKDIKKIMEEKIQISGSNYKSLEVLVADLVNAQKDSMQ", "XIAP-UBA F371A (P98170, form named)": "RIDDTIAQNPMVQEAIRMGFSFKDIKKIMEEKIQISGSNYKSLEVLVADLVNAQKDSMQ", "XIAP-UBA T369A (P98170, form named)": "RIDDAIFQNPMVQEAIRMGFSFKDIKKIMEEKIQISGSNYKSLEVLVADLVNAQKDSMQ", "XIAP-UBA Δ (369–372) (P98170, form named)": "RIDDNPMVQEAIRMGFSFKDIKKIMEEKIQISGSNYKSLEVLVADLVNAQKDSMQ"}, "source": "paper PMC3240630", "key": {"[1]": {"target": "XIAP-UBA (UBA domain of X-linked inhibitor of apoptosis protein, residues 365-423) (human) (UniProt P98170)", "assay": "NMR titration; dilution series of 15N-XIAP-UBA, 0.16 mM to 1.9 mM; changes of 1H-15N HSQC cross peak positions; 298 K; BisTris buffer pH 6.7; both purified"}, "[2]": {"target": "XIAP-UBA (UBA domain of X-linked inhibitor of apoptosis protein, residues 365-423) (human) (UniProt P98170)", "assay": "cross-linking; XIAP-UBA wild type or mutant (1 mg/ml) with 500 µM BS3, 60 min, room temperature, 10 mM HEPES pH 7.5; SDS-PAGE, Coomassie; both purified"}, "[3]": {"target": "XIAP-UBA (UBA domain of X-linked inhibitor of apoptosis protein, residues 365-423) (human) (UniProt P98170)", "assay": "intermolecular NOEs (isotope-filtered, edited 3D NOESY-HSQC); mixed sample of 1 mM 13C/15N-XIAP-UBA and 1 mM unlabelled XIAP-UBA in BisTris buffer; both purified"}, "[4]": {"target": "XIAP-UBA F371A (human) (UniProt P98170)", "assay": "cross-linking; XIAP-UBA wild type or mutant (1 mg/ml) with 500 µM BS3, 60 min, room temperature, 10 mM HEPES pH 7.5; SDS-PAGE, Coomassie; both purified"}, "[5]": {"target": "XIAP-UBA T369A (human) (UniProt P98170)", "assay": "cross-linking; XIAP-UBA wild type or mutant (1 mg/ml) with 500 µM BS3, 60 min, room temperature, 10 mM HEPES pH 7.5; SDS-PAGE, Coomassie; both purified"}, "[6]": {"target": "XIAP-UBA Δ (369–372) (human) (UniProt P98170)", "assay": "cross-linking; XIAP-UBA wild type or mutant (1 mg/ml) with 500 µM BS3, 60 min, room temperature, 10 mM HEPES pH 7.5; SDS-PAGE, Coomassie; both purified"}}, "note": "These are yes or no findings as the source states them, for the method shown. Some results given as binding are weak or reduced against the parent protein; the word gives no strength."}
{"substance": "XIAP-UBA (UBA domain of X-linked inhibitor of apoptosis protein, residues 365-423) (from UniProt P98170 365-423) (domain or fragment)", "values": [{"measurement": "binding", "setting": "[1]", "result": "binds weakly"}, {"measurement": "binding", "setting": "[2]", "result": "binds weakly"}, {"measurement": "binding", "setting": "[3]", "result": "binds weakly"}]}
{"substance": "XIAP-UBA F371A (from UniProt P98170 365-423) (domain or fragment)", "values": [{"measurement": "binding", "setting": "[4]", "result": "binds weakly"}]}
{"substance": "XIAP-UBA T369A (from UniProt P98170 365-423) (domain or fragment)", "values": [{"measurement": "binding", "setting": "[5]", "result": "binds weakly"}]}
{"substance": "XIAP-UBA Δ (369–372) (from UniProt P98170 365-423) (domain or fragment)", "values": [{"measurement": "binding", "setting": "[6]", "result": "no binding (tested: 1 mg/ml)"}]}
